Experimental data: ChEMBL document CHEMBL1157539, “Thousands of chemical starting points for antimalarial lead identification” (Nature, 2010)
The full ranking holds about 13,000 compounds; the median of “IFI” is about 4, and the highest 2% start at about 17. Some of the results follow.

Experiment: GSK_TCMDC: Inhibition Frequency Index (IFI). The number of non-kinase HTS assays where a compound showed > 50 % inhibition, expressed as a percentage of the number of such assays in which the compound was tested (-0 is zero)
Assay type: functional
Molecule `Nc1nc(Cc2ccc(Cl)cc2)nc(Cc2ccc(Cl)cc2)n1` has an IFI of 1.43%.
For `CS(=O)(=O)NCCCNCc1cccc(-c2ccc(-c3nc4cc(C(F)(F)F)ccc4[nH]3)cc2)c1`, the IFI was 2.94%.
`Nc1ccnc(N2CCC(CCOc3cc(C(F)(F)F)nc4c(C(F)(F)F)cccc34)CC2)c1` gave an IFI of 9.49%.
In the case of `O=S(=O)(Nc1cccc(CCN2CCCCC2CCN2CCCC2)c1)c1cccc2ccccc12` (configuration not stated), the IFI is reported as 6.56%.
Work on `COc1cccc(C(=O)Nc2nonc2-c2ccc(OC)c(OC)c2)c1` yielded an IFI of 1%.
Work on `O=C(Nc1ccccc1)N(Cc1ccc(-c2ccc(CNC3CCCC3)cc2)cc1)C1CCN(Cc2ccccc2)CC1` yielded an IFI of 4.9%.
For `S=C(NCCc1ccccc1)Nc1ccc2ncsc2c1`, the IFI was 4.32%.
`COc1cc(NC(=O)/C=C/c2cc(F)cc(F)c2F)cc(OCCN2CCC(O)(c3ccccc3)CC2)c1` showed an IFI of 5.07%.
`O=S(=O)(Nc1ccc2nccc(N3CCNCC3)c2c1)c1ccc(-c2ccccc2)cc1` gave an IFI of 1.48%.
Work on `COc1cc2nc(NCCn3ccnc3C)nc(NCCc3ccccc3)c2cc1OC` yielded an IFI of 2.14%.
In the case of `CCOc1ccc2c(=NN=Cc3ccc(F)cc3)cc(C)[nH]c2c1`, the IFI is reported as 1.46%.
`Cc1ccc(O)c(CN2CCCC(COC(c3ccc(F)cc3)c3ccc(F)cc3)C2)c1` (configuration not stated) gave an IFI of 1.55%.
Molecule `c1ccc2ncc(CNCCCCCCCCNCc3cnc4ccccc4c3)cc2c1` has an IFI of 3.82%.
`Cc1ccc(NC(=O)c2c(C)noc2-c2snnc2C)cc1` gave an IFI of 0.69%.
In the case of `O=C(/C=C/c1ccc(Cl)c(Cl)c1)NCCCCCN1CCCC(CNS(=O)(=O)c2ccc(F)cc2)C1` (configuration not stated), the IFI is reported as 8.57%.
Work on `O=C(Cc1cccc2ccccc12)N1CCc2cc3nccc(N4CCN5CCC[C@H]5C4)c3cc21` yielded an IFI of 1.52%.
In the case of `CCOC(=O)c1ccc(NC(=O)N(Cc2ccc(-c3ccc(CN4CCNCC4)cc3)cc2)Cc2cccnc2)cc1`, the IFI is reported as 2.78%.
`CC(C)Sc1nc2c(c(=O)n1Cc1ccco1)C1(CCCC1)Cc1ccccc1-2` gave an IFI of 2.86%.
Molecule `Cc1cc(OCCCn2ccnc2)ccc1-c1csc(/N=C(\N)NCc2ccccc2)n1` has an IFI of 5%.
`N#Cc1ccc(-c2cnc3ccc(NCCc4cccnc4)nn23)cc1` gave an IFI of 6.02%.
Work on `CC(=O)Nc1cccc(C(=O)Nc2cccc(-c3ccc(-c4nc5cccc(C)c5[nH]4)cc3)c2)c1` yielded an IFI of 6.09%.
Molecule `Cc1cccc(CN2CCCN(Cc3cccc(C(=O)Nc4ccc(C(C)(C)C)cc4)c3)CC2)c1` has an IFI of 10.7%.
`CS(=O)(=O)c1ccc2nc(NC(=O)c3csnn3)sc2c1` gave an IFI of -0%.
In the case of `Nc1nc(N)c2c(ccc3c2ccn3Cc2ccc(Br)cc2)n1`, the IFI is reported as 12.6%.
For `CCc1c(CCNC/C=C/C=C/CNCCc2ccc(OC)c(OC)c2CC)ccc(OC)c1OC`, the IFI was 8.51%.
`COc1cccc(NC(=O)NC2CCN(c3ccnc(Nc4ccc(F)cc4)n3)C2)c1` (configuration not stated) gave an IFI of 1.54%.
`Cc1cccc2nc(-c3cccc(-c4ccc(C(=O)NCc5nccn5C)cc4)c3)[nH]c12` showed an IFI of 1.83%.
`COc1ccc(C2CC(c3ccccc3O)=NN2C(=O)c2ccco2)cc1OC` (configuration not stated) showed an IFI of 3.57%.
With `Cn1c(-c2ccccc2)cc2c3c(=O)cc(C(F)(F)F)[nH]c3ccc21` the IFI was 4.71%.
Molecule `Cc1cnc(NCC2CCCCC2)nc1N[C@@H](CC(C)C)C(=O)Nc1ccccc1` has an IFI of 13.3%.
Work on `COc1ccc(-n2nc(C)cc2C(=O)NCc2ccc(-c3c(C)noc3C)cc2)cc1` yielded an IFI of 4.29%.
For `COc1ccc(CN2CCC2=O)c(OC)c1`, the IFI was 0.74%.
With `COc1cccc2c(NN=Cc3ccccc3Cl)cc(C)nc12` the IFI was 8.7%.
For `CCCCCCCN(CCCCCCC)CCCC(=O)Nc1ccnc2ccc(OC)cc12`, the IFI was 7.87%.
Molecule `CN1CCN(c2ccc(Nc3nccc(-c4cnn5ncccc45)n3)cc2Cl)CC1` has an IFI of 13.5%.
With `Fc1cccc(C=NNc2ccnc3cc(Cl)ccc23)c1` the IFI was 2.22%.
Molecule `CCN(CC)CCNc1ccnc2[nH]c3ccc(I)cc3c12` has an IFI of 3.01%.
For `O=C(Nc1cccc(OC2CCN(Cc3ccsc3)CC2)c1)c1ccc(C(F)(F)F)cc1`, the IFI was 5.19%.
`Cc1cccc2nc(-c3cccc(-c4cccc(NC(=O)CNc5ccc(C(N)=O)cc5)c4)c3)[nH]c12` showed an IFI of 6.73%.
For `CCCCN1CCCC[C@H]1[C@@H](O)c1ccnc2ccc(OCC)cc12`, the IFI was 1.5%.
`CCCCNCc1ccc(-c2nc(CN(Cc3ccc(Cl)c(Cl)c3)C(=O)CN(C)C)cs2)cc1` gave an IFI of 7.53%.
Work on `CO/N=C(\C)c1ccc2c(c1)CCN(CCC1CCC(NC(=O)c3cccc(-c4noc(C)n4)c3)CC1)CC2` (configuration not stated) yielded an IFI of 3.5%.
Work on `CN(C)CCCOc1cccc(CCNCc2cccc(Oc3ccc(Cl)cc3)c2)c1` yielded an IFI of 5.97%.
For `O=C(NC1CCN(Cc2ccccc2O)C1)c1ccc(-c2ccccc2)cc1` (configuration not stated), the IFI was 4.29%.
`CCn1c(-c2nc(-c3ccnc(N4CCN(C)CC4)c3)cnc2N)nc2cc(S(C)(=O)=O)ccc21` showed an IFI of 0%.
For `Cc1cc(C(=O)OCC(N)=O)c(C)n1-c1ccc(F)cc1`, the IFI was 0%.
With `COc1cccc2cc(C(=O)N[C@@H](CC(C)C)C(=O)N[C@H](C=NN3CC(=O)NC3=O)CC(C)C)oc12` the IFI was 2.75%.
With `CCOc1cc(N)c2nc3ccc([N+](=O)[O-])cc3cc2c1` the IFI was 6.47%.
In the case of `Cc1cccc2nc(-c3ccc(-c4ccc(CN5CCN(c6cnccn6)CC5)cc4)s3)[nH]c12`, the IFI is reported as 4.23%.
In the case of `COc1ccccc1CC1CCCN(C2CCC(NC(=O)c3cc4ccccc4[nH]3)CC2)C1` (configuration not stated), the IFI is reported as 4.48%.
Molecule `O=C(c1ccc([N+](=O)[O-])o1)N1CCC(Cc2ccc(C(F)(F)F)cc2)CC1` has an IFI of 9.52%.
`CC(C)(C)NC(=O)COC(=O)c1c2c(nc3ccccc13)C(=Cc1ccc3c(c1)OCO3)CCC2` gave an IFI of 6.9%.
In the case of `Cc1cnc(C(=O)Nc2cccc(-c3ccc(-c4nc5cc(C(F)(F)F)ccc5[nH]4)s3)c2)cn1`, the IFI is reported as -0%.
`Nc1ccc2[nH]cc(C3CCN(CC4CCC(NC(=O)/C=C/c5ccccc5Cl)CC4)CC3)c2n1` (configuration not stated) gave an IFI of 4.44%.
Molecule `CCc1sc(N2CCN(C)CC2)nc1C(=O)NCCc1ccc(Cl)c(Cl)c1` has an IFI of 1.92%.
`Cc1ccccc1C1CCN(C2CCC(NC(=O)/C=C/c3cccc(C(F)(F)F)c3)CC2)CC1` (configuration not stated) showed an IFI of 13.1%.
With `COc1ccc(C(=O)Nc2ccc3nc(N4CCCCC4)cc(C)c3c2)cc1[N+](=O)[O-]` the IFI was 9.89%.
Molecule `COc1cccc(COCC(O)CN(CCc2ccccn2)C(=O)c2ccccc2F)c1` (configuration not stated) has an IFI of 0%.
`O=C(CC(=O)C(F)(F)F)c1ccc2c(c1)OCO2` gave an IFI of 1.42%.
In the case of `O=C(COc1cnc2ccccc2n1)Nc1ccccc1Sc1ccc(Cl)cc1`, the IFI is reported as 2.27%.
Work on `Nc1nccc2ccc(-c3cccc(O)c3)cc12` yielded an IFI of 7.14%.
In the case of `c1ccc2[nH]c(-c3ccc(-c4ccc(CNC5CC5)cc4)s3)nc2c1`, the IFI is reported as 2.97%.
In the case of `COc1nc2c(CCN3CCC(NCc4ccc5c(n4)NC(=O)CO5)CC3)c(Cl)cnc2cc1F`, the IFI is reported as 4.32%.
In the case of `CCOC(=O)CN(c1ccc(Br)cc1OCCOc1cc(Br)ccc1N(CC(=O)OCC)C(C)C(=O)OCC)C(C)C(=O)OCC` (configuration not stated), the IFI is reported as 0.75%.
`COc1ccc2c(ccc3c2ncc2c(=O)n(-c4ccccc4)[nH]c23)c1` gave an IFI of 0%.
For `Oc1ccc(CCNc2nc(NCc3ccccc3-c3ccc(F)cc3)nc(N3CCNCC3)n2)cc1`, the IFI was 13.6%.
`CC(=O)Nc1ccc2[nH]cc(C3CCN(CCC4CCN(C(=O)/C=C/c5ccc(Cl)c(Cl)c5)CC4)CC3)c2c1` gave an IFI of 2.92%.
`Cc1c2ccc(N(C)c3ccnc(Nc4ccc5c(c4)nc(NC(C)C)n5C)n3)cc2nn1C` gave an IFI of 7.3%.
Work on `CO/C(=C\C=C\c1cc2cc(Cl)c(Cl)cc2[nH]1)C(=O)NCCCN1CCN(c2cccc(CCCO)c2)CC1` yielded an IFI of 12.8%.
For `COc1cccc(CC(=O)N2CCC(n3c(C)nc4ccc(C)cc43)CC2)c1`, the IFI was 0%.
`Oc1ccc2[nH]c(-c3cccs3)nc2c1CN1CCC(O)(c2ccccc2)CC1` gave an IFI of 1.02%.
With `Cc1cc(O)c(-c2ccc(OCc3ccc(Cl)cc3)cc2)c(C)n1` the IFI was 0.76%.
`CCC(=O)c1c(C)n(-c2ncnc3c2nc(C)n3-c2ccc(C)cc2C)c2ccccc12` showed an IFI of 1.67%.
Work on `Cc1nc(C)c(-c2ccc(Oc3ccc(Cl)c(Cl)c3)cc2)c(O)c1Cl` yielded an IFI of 3.82%.
With `O=C(/C=C/c1ccc(Cl)c(Cl)c1)NCCCCCN1CCCC(C(=O)Nc2cccc(Cl)c2)C1` (configuration not stated) the IFI was 14.9%.
`CCCOc1ccc(C(=O)Nc2nonc2-c2ccc(OC)c(OC)c2)cc1` gave an IFI of 0.94%.
With `CC(NC(=O)c1ccc(O)c(-c2ccc(Cl)c(Cl)c2)c1)C(=O)NCCN1CCOCC1` (configuration not stated) the IFI was 1.48%.
`Cc1[nH]c(C)c([N+](=O)[O-])c(=O)c1-c1ccc(Oc2ccc(OC(F)(F)F)cc2)cc1` showed an IFI of 0.85%.
`CS(=O)(=O)CCNCc1ccc(-c2ccc3c(Nc4ccc(Cl)cc4F)ccnc3c2)o1` showed an IFI of 5.88%.
In the case of `CCN(CC)CCN(Cc1ccc(-c2ccc(C(F)(F)F)cc2)cc1)C(=O)Cn1c(CCC2CCCCC2)nc(=O)c2ccccc21`, the IFI is reported as 6.11%.
In the case of `Cc1nc(-c2ccc(-c3ccc(C(=O)Nc4ccc(C(C)C)c(OCCN(C)C)c4)cc3)c(C)c2)no1`, the IFI is reported as 8.4%.
Molecule `CCC[C@@H]([C@@H](CC1CCCCC1)C(=O)N[C@H](C(=O)Nc1nccs1)C(C)(C)SCCNC(=O)OCC)N(O)C=O` has an IFI of 5.84%.
`CN1CCN(Cc2nc(-c3ccc4c(Nc5ccc(Oc6ccccc6)cc5)ccnc4c3)cs2)CC1` showed an IFI of 5.19%.
Molecule `COc1ccc(OC)c2c1CCN(C)C2Cc1cccc2ccccc12` (configuration not stated) has an IFI of 2.16%.
For `Cc1cnc(-c2ccc(NC(=O)N3CCc4cc5nccc(N6CCN7CCC[C@H]7C6)c5cc43)c3ccccc23)o1`, the IFI was 4.2%.
Molecule `COc1ccccc1NC(=O)NC1CCN(CCCCCNC(=O)/C=C/c2ccc(Cl)c(Cl)c2)CC1` has an IFI of 4.32%.
Work on `Oc1ccc(Br)cc1-c1nc2ccc(Cl)cc2nc1-c1cc(Br)ccc1O` yielded an IFI of 4.32%.
Work on `O=C(NCCc1ccccc1)N(Cc1ccccc1-c1ccc(CNC2CCCC2)cc1)C1CCN(Cc2ccccc2)CC1` yielded an IFI of 7.25%.
With `CCN(c1cc(C)nc(Nc2ccc(Cl)cc2)n1)[C@H]1CCN(Cc2ccccc2)C1` the IFI was 7.23%.
In the case of `CC(=O)N(C)c1cccc(C(=O)Nc2cccc(-c3cccc(-c4nc5cccc(C)c5[nH]4)c3)c2)c1`, the IFI is reported as 3.48%.
Molecule `COc1ccc(CCNCCCCCCNCCc2ccc(Cl)c3ccccc23)cc1OC` has an IFI of 9.42%.
With `Nc1ccc(-c2csc(Nc3ccncc3)n2)cc1` the IFI was 1.49%.
